# Measurements taken from publication PMC3880688 (ACS chemical biology, 2013).
# What was measured:
# [1] = molecular target: recombinant human HDAC3-SMRT-DAD (Homo sapiens, UniProt O15379); test: competitive fluorescence-based deacetylase assay; type: biochemical; conditions: 0.1, 1, 10 μM; 5 min and 3 h pre-incubation
# [2] = molecular target: T1, HDAC3-SMRT-DAD complex (Homo sapiens, UniProt O15379); test: saturation transfer difference; type: binding; conditions: 1 μM complex; probe 7 100 μM; Ins(1,4,5,6)P4 25 μM
# [3] = molecular target: T1, HDAC3-SMRT-DAD complex; test: photocrosslinking / biotinylation of recombinant HDAC3-SMRT-DAD complex; conditions: all Ins(1,4,5,6)P4 concentrations, with or without monoazide 5
structure (smiles),measurement,setting,value
"O=P(O)(O)O[C@H]1[C@H](OP(=O)(O)O)[C@@H](OP(=O)(O)O)[C@@H](O)[C@@H](O)[C@@H]1OP(=O)(O)O [Ins(1,4,5,6)P4, D-myo-inositol-(1,4,5,6)-tetrakisphosphate, reference compound]",effect on enzymatic activity of HDAC3-SMRT-DAD,[1],does not inhibit the enzymatic activity
same,STD NMR response / binding to the complex,[2],binds to the HDAC3-SMRT-DAD complex
same,effect on photolabeling of HDAC3 or SMRT-DAD with probe 1,[3],no statistically significant effect
